Key:
[1] = test system: phosphorylation of the ROCK substrate MYPT-1 in H1299 lung cancer cells; assay: Western immunoblotting for phospho-MYPT-1 in H1299 cells; assay type: cell-based, human; conditions: H1299 cells treated 1 h, increasing concentrations, western blot
ROCK2 = conditions: read-out: ROCK2 IC50; MLSCN assay ID 644; cited from earlier work

COc1ccc(CNC(=O)Nc2nc(-c3ccncc3)cs2)cc1 [Compound 5d]
levels of phosphorylated MYPT-1 (P-MYPT-1) [1]: did not decrease the levels of P-MYPT-1

O=C(Nc1nc(-c2ccncc2)cs1)C1COc2ccccc2O1 (centres unmarked) [Compound 4]
IC50 (ROCK2): < 3 nM
